B1: HzNB1613-FC (Fc fusion)
heavy: QVQLQESGGGLVQPGGSLRLSCAASAYTISRNSMGWFRQAPGKGLEGVAAIESDGSTSYSDSVKGRFTISLDNSKNTLYLEMNSLRAEDTAVYYCAAPKVGLGPRTALGHLAFMTLPALNYWGQGTLVTVSS[sequence of human IgG1 Fc with changes not given]
notes: also called AmNB1613.0; parent antibody
B2: AmNB1613.1 (AmNB1613^mutant-FC) (Fc fusion)
heavy: QVQLQESGGGLVQPGGSLRLSCAASADPMSRNSMGWFRQAPGKGLEGVAAIESDGSTSYSDSVKGRFTISLDNSKNTLYLEMNSLRAEDTAVYYCAAPKVGLGPRTALGHLAFMTLPALNYWGQGTLVTVSS[sequence of human IgG1 Fc with changes not given]
B3: AmNB1613.12 (AmNB1613^mutant-FC) (Fc fusion)
heavy: QVQLQESGGGLVQPGGSLRLSCAASDNPMSRNSAGWFRQAPGKGLEGVAAIESDGSTSYSDSVKGRFTISLDNSKNTLYLEMNSLRAEDTAVYYCAAPKVGLGPRTALGHLAFMTLPALNYWGQGTLVTVSS[sequence of human IgG1 Fc with changes not given]
B4: AmNB1613.25 (AmNB1613^mutant-FC) (Fc fusion)
heavy: QVQLQESGGGLVQPGGSLRLSCAASAYTISRNSMGWFRQAPGKGLEGVAAIESDGSTSYSDSVKGRFTISLDNSKNTLYLEMNSLRAEDTAVYYCAAPKVGLGPRTALGHLAFMTLQDLNDWGQGTLVTVSS[sequence of human IgG1 Fc with changes not given]
B5: AmNB1613.28 (AmNB1613^mutant-FC) (Fc fusion)
heavy: QVQLQESGGGLVQPGGSLRLSCAASAYTISRNSMGWFRQAPGKGLEGVAAIESDGSTSYSDSVKGRFTISLDNSKNTLYLEMNSLRAEDTAVYYCAAPKVGLGPRTALGHLAFMILQDLNYWGQGTLVTVSS[sequence of human IgG1 Fc with changes not given]
B6: AmNB1613.36 (AmNB1613^mutant-FC) (Fc fusion)
heavy: QVQLQESGGGLVQPGGSLRLSCAASAYTISRNSMGWFRQAPGKGLEGVAAIESDGSTSYSDSVKGRFTISLDNSKNTLYLEMNSLRAEDTAVYYCAAPKVGLGPRTALGHLAFMILADLNDWGQGTLVTVSS[sequence of human IgG1 Fc with changes not given]

What follows are binders tested against T1, human PD-L1 (Acro Biosystems, Catalog No. PD1-H5229) (human, UniProt Q9NZQ7 in part) (assay: BLI (Octet Red96), purified sample captured on AHQ sensor, human PD-L1 in solution, 1:1 model).
T1 construct: Soluble bought protein used in BLI and SPR; also called antigen human PD-L1
Experimental: (§1) Kinetic analysis was performed on the assay results using a 1:1 binding model.

Going from B1 to B2, the Kd falls from 43 nM to 8.14 nM (5.3-fold). The second binds more tightly here.

B3 and B4 are within 1.5-fold of each other in Kd: 6.72 nM for the first, 6.87 nM for the second.

First: B5
Second: B6
The Kd of the first is 1.6-fold higher: 6.87 nM for the first, 4.21 nM for the second.

Compared with B1, B2 is 3.3-fold lower in koff: 0.00346 s⁻¹ for the first, 0.00104 s⁻¹ for the second.

B3 and B4 are within 1.5-fold of each other in koff: 0.000932 s⁻¹ for the first, 0.000887 s⁻¹ for the second.

B5 and B6 are within 1.5-fold of each other in koff: 0.000773 s⁻¹ for the first, 0.000702 s⁻¹ for the second.

First: B1
Second: B2
The kon of the first is 1.6-fold lower: 80500 M⁻¹ s⁻¹ for the first, 128000 M⁻¹ s⁻¹ for the second.

B3 and B4 are within 1.5-fold of each other in kon: 139000 M⁻¹ s⁻¹ for the first, 129000 M⁻¹ s⁻¹ for the second.

B5 and B6 are within 1.5-fold of each other in kon: 113000 M⁻¹ s⁻¹ for the first, 167000 M⁻¹ s⁻¹ for the second.

The binders below were run against T1, human PD-L1 (Acro Biosystems, Catalog …) (assay: BLI (Octet Red96), supernatant sample captured on AHQ sensor, 100 nM human PD-L1 in solution, 1:1 model).
Experimental: as §1

First: B1
Second: B2
The Kd of the first is 6-fold higher: 16.4 nM for the first, 2.72 nM for the second.

B3 and B4 are within 1.5-fold of each other in Kd: 2.26 nM for the first, 2.15 nM for the second.

Compared with B5, B6 is 1.5-fold lower in Kd: 2.67 nM for the first, 1.76 nM for the second.

Each binder was assayed against T1, human PD-L1 (Acro Biosystems, Catalog …) (assay: SPR, antibody captured by anti-human Fc antibody on CM5 chip, human PD-L1 0.15-20 nM as analyte, 1:1 model).

Going from B1 to B2, the Kd falls from 3.92 nM to 0.301 nM (13-fold). The second binds more tightly here.

Going from B3 to B4, the Kd falls from 0.409 nM to 0.204 nM (2-fold).

For B5, the Kd was 0.176 nM.

First: B1
Second: B2
The koff of the first is 11-fold higher: 0.00581 s⁻¹ for the first, 0.000522 s⁻¹ for the second.

B3 and B4 are within 1.5-fold of each other in koff: 0.000531 s⁻¹ for the first, 0.000489 s⁻¹ for the second.

In the case of B5, the koff is reported as 0.000595 s⁻¹.

B1 and B2 are within 1.5-fold of each other in kon: 1.48e+06 M⁻¹ s⁻¹ for the first, 1.73e+06 M⁻¹ s⁻¹ for the second.

Compared with B3, B4 is 1.8-fold higher in kon: 1.3e+06 M⁻¹ s⁻¹ for the first, 2.4e+06 M⁻¹ s⁻¹ for the second.

For B5, the kon was 3.37e+06 M⁻¹ s⁻¹.

These binders were tested against T2, human PD-L1 on the CHO cell surface (human, UniProt Q9NZQ7) (assay: flow cytometry on CHO cells expressing human PD-L1 (CHOS-huPD-L1), sample after 30 days at 40 C).
T2 construct: whole, on cells; also called CHO-PD-L1 cells; PD-L1+ CHOK1 cells

For B2, the “EC50 (read off the curve)” value was about 5 nM.

Molecular target: T2, human PD-L1 on the CHO cell surface
T2 sequence (Q9NZQ7 19-290): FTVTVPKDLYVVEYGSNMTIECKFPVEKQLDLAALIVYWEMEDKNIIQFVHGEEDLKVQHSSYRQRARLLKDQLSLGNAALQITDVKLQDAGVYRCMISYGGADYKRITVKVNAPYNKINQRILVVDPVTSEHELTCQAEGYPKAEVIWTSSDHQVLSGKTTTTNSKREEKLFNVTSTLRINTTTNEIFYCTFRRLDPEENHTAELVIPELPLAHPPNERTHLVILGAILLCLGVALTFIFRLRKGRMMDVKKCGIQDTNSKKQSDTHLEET
Experiment: as above
Remark: another data set of the same source

With B3 the “EC50 (read off the curve)” value was about 4 nM.

Molecular target: T2, human PD-L1 on the CHO cell surface
Experiment: as above
Remark: another data set of the same source

B4 was tested, and the “EC50 (read off the curve)” value was about 3 nM.

Molecular target: T2, human PD-L1 on the CHO cell surface
Experiment: as above
Remark: another data set of the same source

In the case of B5, the “EC50 (read off the curve)” value is reported as about 4 nM.

The binders below were run against T2, human PD-L1 on the CHO cell surface (assay: flow cytometry on CHO cells expressing human PD-L1 (CHOS-huPD-L1), sample before storage at 40 C).

For B2, the “EC50 (read off the curve)” value was about 5 nM.

Molecular target: T2, human PD-L1 on the CHO cell surface
Experiment: as above
Remark: another data set of the same source

For B3, the “EC50 (read off the curve)” value was about 4 nM.

Molecular target: T2, human PD-L1 on the CHO cell surface
Experiment: as above
Remark: another data set of the same source

B4 was tested, and the “EC50 (read off the curve)” value was about 3 nM.

Molecular target: T2, human PD-L1 on the CHO cell surface
Experiment: as above
Remark: another data set of the same source

For B5, the “EC50 (read off the curve)” value was about 4 nM.
